Assay results: PubChem BioAssay AID686978 (National Center for Advancing Translational Sciences (NCATS), 2013)
The campaign covered roughly 420,000 compounds. About 64,000 (15%) were called active. The inconclusive results got no clear call from the source; some entries with a clear call stand among them for comparison. Calls come from the whole dose curve; as a rule, active = well fitted inhibition curve with a large enough effect; inconclusive = small, poorly fitted or top-dose-only effect; inactive = flat fitted curve, though single readings scatter. Potencies of inconclusive entries are left out as doubtful fits.

Assay: qHTS for Inhibitors of human tyrosyl-DNA phosphodiesterase 1 (TDP1): qHTS in cells in absence of CPT; note: nearly all actives have a fitted effect of over 55% in size
Details: DT40 Tdp1-/- hTDP1 cells, no CPT, ATP luminescence, 48 h; activity change, negative = growth inhibition: at 46.2 µM (top of the series)
Method in brief: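 A cellular qHTS used chicken DT40 cells lacking endogenous Tdp1 but carrying stably transfected human TDP1. Compounds were applied without camptothecin, and cell growth kinetics were judged by ATP-dependent luminescence after ≥48 hr.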
% is set by controls: 0 for no effect and ±100 for the full control effect; potency is the fitted concentration of half-maximal effect; tags give direction and shape of the fitted curve.

SMILES | Potency | activity change, negative = growth inhibition
O=C(Nc1ccc(N2CCOCC2)cc1)c1cccc2ccccc12 | inconclusive [inhibitor, single point] | 
COc1cccc(NC(=O)CCC2CCN(C(=O)c3cccc(NC(C)=O)c3)CC2)c1 |  | inactive: 2.49%
CCCOC(=O)c1c(NC(=O)c2nc3ncccn3n2)sc(C(N)=O)c1C |  | inactive: -26.4%
Cc1ccnc(N2CCC(C(=O)NC3CCCCCC3)CC2)n1 |  | inactive: -5.99%
COc1cccc(CC(=O)Nc2cc(S(=O)(=O)N3CCCCC3)ccc2C)c1 | inconclusive [inhibitor, single point] | 
O=C(NC1CCCCC1)C(c1ccncc1)N(C(=O)c1ccco1)c1ccc(F)cc1 (stereo not drawn) |  | inactive: -13.6%
COc1ccccc1N1CCN(C(=O)c2cc(-c3ccc4c(c3)OCO4)on2)CC1 | inconclusive [inhibitor, single point] | 
COc1ccccc1C1CC(c2cccs2)=NN1C(=O)CCC(=O)O (stereo not drawn) |  | inactive: -5.44%
CCCCN(CCCC)Cc1cc(=O)oc2cc(C)c(Cl)cc12 | inconclusive [inhibitor, single point] | 
COc1ccc(-c2ccccc2)c2oc(-c3ccco3)cc(=O)c12 | inconclusive [inhibitor, partial curve] | 
Cc1nc2c(C(=O)NCCCN(CC(C)C)CC(C)C)cnn2c(C)c1Cc1c(F)cccc1Cl | active: 20.6 µM | 
C=CCNc1ncnc2ccccc12 |  | inactive: -27.9%
Cc1ccc(NC(=O)C2C(c3ccccc3)C2(Cl)Cl)c(C)c1 (stereo not drawn) | inconclusive [inhibitor, single point] | 
CC(C)(C)C1CCC(CN2CCC(CN3C(=O)C(=O)NC[C@@H]3Cc3ccccc3)CC2)CC1 (stereo partly drawn) | inconclusive [inhibitor, single point] | 
Cc1c(NC(=O)c2ccc(C(=O)Nc3c(C)n(C)n(-c4ccccc4)c3=O)cc2)c(=O)n(-c2ccccc2)n1C |  | inactive: -2.33%
O=C(NCc1ccccc1Cl)c1cc2c(s1)-c1ccc(Cl)cc1SC2 | inconclusive [inhibitor, single point] | 
O=C(CN1CCN(c2ccc(O)cc2)CC1)Nc1ccc2c(c1)OCCCO2 | inconclusive [inhibitor, partial curve] | 
COc1ccccc1N(CC(=O)NCc1ccccc1C)S(=O)(=O)c1ccc(C)cc1 | inconclusive [inhibitor, single point] | 
O=C(COC(=O)CNS(=O)(=O)c1ccc2ccccc2c1)Nc1ccccc1Sc1ccccc1 | inconclusive [inhibitor, single point] | 
CN(CC1COCCO1)C(=O)c1cc(COc2c(F)cccc2F)on1 (stereo not drawn) | inconclusive [inhibitor, single point] | 
Cc1cccc(S(=O)(=O)NC(=O)C2(C)CCN2C(=O)Cc2cccs2)c1 (stereo not drawn) | inconclusive [inhibitor, single point] | 
COc1ccc(C=C(NC(=O)c2ccccc2)C(=O)O)cc1OC |  | inactive: 1.19%
CC1(C(=O)Nc2cnc3ccccc3c2)CCN1C(=O)CCc1ccccc1 (stereo not drawn) | active: 18.4 µM | 
CCOc1ccc(N2CC(C(=O)NCc3ccco3)CC2=O)cc1 (stereo not drawn) |  | inactive: -4.77%

SMILES | Potency | activity change, negative = growth inhibition
c1ccc(CN2CCC(CNc3ncnc4ccccc34)C2)cc1 (stereo not drawn) | active: 10.3 µM | 
COc1cc2ccccc2cc1C(=O)Nc1ccccc1N1CCCC1 | inconclusive [inhibitor, single point] | 
O=C(O)c1ccccc1C(=O)NCc1ccccc1 |  | inactive: -23.3%
N#CCCCC#Cc1ccc2c(c1)COc1c3ccccc3nn1-2 | inconclusive [inhibitor, single point] | 
CSc1ccccc1NC(=O)c1ccc(CN2CCOCC2)cc1 |  | inactive: -0.914%
Cc1noc(C)c1C(=O)N1CCC[C@@]2(CCN(C(=O)Nc3cccc(C#N)c3)C2)C1 |  | inactive: -2.84%
CSc1ccc(S(=O)(=O)N(C)Cc2ccccc2)cc1 |  | inactive: -13.9%
CN(C)CCNC(=O)c1ccc(Cl)c2cc3ccccc3nc12 | active: 0.146 µM | 
COc1cc2ccccc2cc1C(=O)Nc1ccc(N2CCN(C(=O)C(C)C)CC2)cc1 | active: 10.3 µM | 
CCc1cccc(C)c1NC(=O)C1CN(S(=O)(=O)c2ccccc2)CCN1S(=O)(=O)c1ccccc1 (stereo not drawn) | inconclusive [inhibitor, single point] | 
COC(=O)CC1(c2ccc(OC)cc2)C(=O)c2ccccc2C1=O |  | inconclusive: -32% [inhibitor]
COc1ccc2c(c1)OC[C@H]1[C@H]2N2C(=O)CN(Cc3ccc(F)cc3)C(=O)[C@@]2(C)[C@H]1c1ccccc1 | inconclusive [inhibitor, single point] | 
COc1ccc(CCC(=O)OCC(=O)Nc2sccc2C(N)=O)cc1OC | inconclusive [inhibitor, partial curve] | 
CC(=O)Nc1ccc(Oc2cncc(Cl)c2)nc1 | inconclusive [inhibitor, partial curve] | 
O=C(CSc1nnc(NC2CCCCC2)s1)N1CCOCC1 |  | inactive: 19.8%
COc1ccc(NC(=O)N(Cc2cc3cc(OC)c(OC)cc3[nH]c2=O)CC2CCCO2)cc1 (stereo not drawn) | inconclusive [inhibitor, single point] | 
O=C(Nc1ccc(-c2nc3cc(Cl)ccc3c(=O)o2)cc1)c1ccco1 | inconclusive [inhibitor, single point] | 
CN(C)C1=NCC(CSC(=N)N)S1 (stereo not drawn) |  | inactive: -16.8%
COc1ccc(CN(C)C(=O)[C@H](Cc2ccccc2)NC(=O)c2ccco2)c(OC)c1 | inconclusive [inhibitor, partial curve] | 
N#Cc1cccc(C(=O)N(CCc2ccccc2)Cc2cccs2)c1 | active: 25.9 µM | 
CC(=O)N1CCc2c(sc(NC(=O)CSc3ccccc3)c2-c2nc3ccccc3s2)C1 | active: 10.3 µM | 
CC(C)(C)C(=O)Nc1cccc(-c2cn3cccnc3n2)c1 |  | inactive: -6.55%
Cc1cc2oc(=O)cc(CN(C)Cc3ccccc3)c2cc1C(C)C | inconclusive [inhibitor, single point] | 
Cc1cc(NC(=O)CSc2nc(-c3ccco3)cc(C(F)(F)F)n2)n(-c2ccccc2)n1 | active: 4.11 µM | 
